Experimental data: paper PMC6919601, “Identification of Plasmodium dipeptidyl aminopeptidase allosteric inhibitors by high throughput screening” (PLoS ONE, 2019)
About 230 (0.21%) of roughly 110,000 compounds showed an effect of 50% or more. The list shows a part of the results.

biological target: DPAP1 (Plasmodium falciparum, UniProt Q8IIJ9); experiment: primary screen, percent inhibition; read by cleavage of a fluorogenic dipeptide substrate; higher = more effect of the substance; set-up: species or system P. falciparum D10 trophozoite lysates; single well
Sequence (Q8IIJ9 whole entry, looked up): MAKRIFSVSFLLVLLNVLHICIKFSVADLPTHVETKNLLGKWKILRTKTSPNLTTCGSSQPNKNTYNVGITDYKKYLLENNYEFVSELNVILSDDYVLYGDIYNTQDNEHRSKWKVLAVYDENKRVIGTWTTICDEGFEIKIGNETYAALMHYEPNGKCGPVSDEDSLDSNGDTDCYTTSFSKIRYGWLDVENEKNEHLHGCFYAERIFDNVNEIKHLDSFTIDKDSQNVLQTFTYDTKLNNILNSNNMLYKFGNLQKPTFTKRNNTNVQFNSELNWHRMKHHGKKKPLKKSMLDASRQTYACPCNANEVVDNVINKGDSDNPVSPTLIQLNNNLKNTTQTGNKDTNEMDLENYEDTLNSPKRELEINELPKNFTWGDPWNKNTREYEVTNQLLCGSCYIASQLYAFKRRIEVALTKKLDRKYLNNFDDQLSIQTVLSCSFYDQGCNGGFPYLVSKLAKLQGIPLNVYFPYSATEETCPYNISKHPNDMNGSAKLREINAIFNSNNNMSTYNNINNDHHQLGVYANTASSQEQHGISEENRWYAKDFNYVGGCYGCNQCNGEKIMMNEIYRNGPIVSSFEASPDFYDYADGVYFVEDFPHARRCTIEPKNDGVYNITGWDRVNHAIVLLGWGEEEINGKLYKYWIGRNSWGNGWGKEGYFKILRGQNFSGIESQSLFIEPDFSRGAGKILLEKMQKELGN
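Also: 30 min substrate incubation versus DMSO and 10 µM JCP410 controls.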

Row | SMILES | % Inhibition @ 10 uM [%]
1 | CN1C(=O)N(C)C(=O)C(Cc2ccccn2)(Cc2ccccn2)C1=O | -6.25
2 | Cc1nc2c(C(=O)NCCC3=CCCCC3)cnn2c(C)c1Cc1ccccc1Cl | -4.29
3 | CC(=O)Nc1ccc(C(=O)N(C)C(C(=O)Nc2ccccc2)c2ccccn2)cc1 (stereo not drawn) | -11.2
4 | COc1ccccc1-c1cc(C(=O)Nc2c(C)nn(Cc3ccccc3C)c2C)no1 | 12.8
5 | O=C(CCCOc1ccc(Cl)cc1Cl)N1CCN(c2ccc(F)cc2)CC1 | 0.135
6 | COc1ccc(/C=N/c2nnc(-c3ccccc3)c(-c3ccccc3)n2)c(C(=O)O)c1OC | 2.18
7 | CC1=NC2=C(C(=O)CCC2)C(c2cccc(Cl)c2)/C1=C(\O)OC(C)C (stereo not drawn) | -1.15
8 | CCN1/C(=C2/SC(=S)N(C3CCCCC3)C2=O)C=Cc2cc(C)ccc21 | -0.0369
9 | O=C(Cn1nc(C(F)(F)F)cc1C1CC1)Nc1cccc(Cl)c1 | -3.71
10 | CCCCc1[nH]nc2c1C(c1cc(OC)c(OC)cc1OC)C(C#N)=C(N)O2 (stereo not drawn) | 0.722
11 | O=C(CCCn1c2ccccc2c2cnnc(O)c21)NCCCN1CCCC1=O | -0.281
12 | COc1ccccc1C(=O)N1CCN(C)CC1 | -0.233
13 | O=C1CCCC2=C1C(c1ccc3c(c1)OCO3)C1=C(CCCC1=O)O2 | 1.5
14 | C/N=C1\SC(CC(=O)Nc2cccc(C(=O)O)c2)C(=O)N1C (stereo not drawn) | 5.37
15 | CCOc1ccccc1C1C(C#N)=C(N)Oc2ccc3ccccc3c21 (stereo not drawn) | 8.08
16 | CCCC[C@H](NC(=O)C(Cc1c(F)cccc1F)NC(=O)c1ccc(-c2ccccc2Cl)cc1)C(=O)CC(=O)N1CCCC1 (stereo partly drawn) | -3.48
17 | Cc1ccc(CN2CCN(CC(=O)NC3CCCCC3C)C2=O)cc1 (stereo not drawn) | -4.16
18 | COC(=O)C1=CN(C(C)C)C=C(C(=O)OC)C1c1cccs1 | 4.99
19 | Cc1ccc2nc(NC(=O)Cn3cccc3)sc2c1 | -0.692
20 | COc1ccc2ccc(OC)c(/C=C3/NC(=O)NC3=O)c2c1 | 3.8
21 | Nc1nc2cc3sc(N)nc3cc2s1 | -4.11

Row | SMILES | % Inhibition @ 10 uM [%]
22 | COc1ccc(Br)cc1C1N(c2cc(C)on2)C(=O)C2CCCN21 (stereo not drawn) | 2.9
23 | O=S(=O)(c1cccc(-c2nc3ccccc3s2)c1)N1CCCCC1 | -3.88
24 | COc1ccccc1/C=C/C(=O)c1ccc2ccccc2c1 | 19.4
25 | CCC(Cc1cccc(O)c1)C(=O)O (stereo not drawn) | 5.56
26 | COc1ccc(Cl)cc1NC(=O)c1c(Cl)c(C)nn1C | 2.01
27 | COc1ccc(S(=O)(=O)Cc2ccc(C(=O)N3CCc4ccccc4C3)o2)cc1 | 0.458
28 | CCC1CCCCN1C(=O)c1cc2c(-c3ccc(OC)c(OC)c3)nn(C)c2s1 (stereo not drawn) | -0.499
29 | CC(C)CC(=O)/N=C1\SC2CS(=O)(=O)CC2N1Cc1ccccc1Cl (stereo not drawn) | 0.558
30 | CC1(C)CC(=O)C2=C(C1)OC(N)=C(C#N)C2c1ccc2ccccc2c1 (stereo not drawn) | -5.65
31 | N/C=C1\C(=O)NC(=O)N(c2ccc(C34CC5CC(CC(C5)C3)C4)cc2)C1=O | 7.04
32 | COc1ccccc1N1C(=O)CC(N2CCN(c3ccc(Cl)cc3)CC2)C1=O (stereo not drawn) | -9.66
33 | COc1ccc(C2N(C(=O)c3ccccc3)CCN2S(=O)(=O)c2ccccc2)cc1 (stereo not drawn) | 6.27
34 | CCC1(c2ccccc2)OC(=O)C2C3CCCCC3=C3CCCCC3C21 (stereo not drawn) | 0.937
35 | C=CCNC(=O)C1CC=CCC1C(=O)NCc1ccccc1 (stereo not drawn) | -0.216
36 | Cc1cccnc1NC(=O)Nc1ccc(F)cc1 | 2.38
37 | Fc1ccc(F)c(CN2CCN(Cc3ccccc3)CC2)c1 | -1.41
38 | CC(C)CN1C(=O)c2ccccc2C(C(=O)NCc2ccc(F)cc2)C1c1cccs1 (stereo not drawn) | 3.01
39 | Cc1ccc(-c2ccc(=O)n(CC(=O)N3CCN(C)CC3)n2)cc1 | 0.514
40 | Oc1cccc(CNc2ccc(F)c(Cl)c2)c1 | 1.08
41 | O=C(Nc1ccccn1)C1CCN(c2ncnc3c2nc2n3CCCCC2)CC1 | 4.61
42 | COc1cc2c(cc1OC)C(C)N(C(=O)Cn1ncc3c4ccccc4nc-3c1O)CC2 (stereo not drawn) | 5.7

Row | SMILES | % Inhibition @ 10 uM [%]
43 | COc1ccc(N2CCN(Cc3ccc([N+](=O)[O-])cc3)CC2)cc1 | 2.47
44 | Cc1ccc2c(c1)Cc1c(O)nc(-c3ccc(F)cc3)nc1O2 | -4.68
45 | CCOc1ccc(/C=C2\SC(N3CCN(Cc4ccccc4)CC3)=NC2=O)cc1OCC | -1.81
46 | O=S(=O)(NCc1ccc2c(c1)OCO2)c1cccc(F)c1 | -6.65
47 | C=Cc1ccc(Cn2c(C(=O)O)c(CNCc3cc(OC)c(OC)c(OC)c3)c3ccccc32)cc1 | -1.38
48 | CCCS(=O)(=O)N1CCCC(C(=O)NCCN2CCOCC2)C1 (stereo not drawn) | -7.35
49 | CCS(=O)(=O)N1CCC2(CC1)OC(=O)C(C)=C2C(=O)NCC1CCCO1 (stereo not drawn) | 0.185
50 | Cc1ccsc1/C=C1/NC(=O)N(Cc2ccccc2F)C1=O | 4.85
51 | Cc1cc2c(C)cc(=O)oc2c2c1NCCC2 | -2.91
52 | Cc1cccc(CN2C(=O)N/C(=C/c3cccs3)C2=O)c1 | -7.83
53 | COc1cccc(-n2c(SCC(=O)NCCc3ccccc3)nc3nnc(C)c-3c2N)c1 | 4.35
54 | CCn1c(SCC(N)=O)nc2c(c1=O)SCC2 | 2.54
55 | CC(C)c1ccc(NC(=O)c2cccc(F)c2)cc1 | -0.636
56 | N#CC1=C(N)Oc2[nH]nc(-c3ccc(F)cc3)c2C1c1ccncc1 (stereo not drawn) | 5.48
57 | COC(=O)C1=C(C)OC(N)=C(C#N)C12C(=O)Nc1ccccc12 (stereo not drawn) | -1.37
58 | Cc1cccc(C)c1N1C(=O)C(Cl)=C(N2CCCCCC2)C1=O | 3.72
59 | CCN1CCC2(CC1)OC(=O)C(C)=C2C(=O)NCCc1ccccc1 | 0.297
60 | CCOc1ccc(N(CC(=O)Nc2ccccc2C(=O)O)S(C)(=O)=O)cc1 | 6.69
61 | N#Cc1ccccc1CN1C(=O)S/C(=C/c2ccco2)C1=O | -6.16
62 | CC(NC(=O)c1cccc(C(=O)NC(C)c2ccccc2)c1)c1ccccc1 (stereo not drawn) | 0.331
63 | Cc1ccc(S(=O)(=O)c2nnn3c2nc(NCCCOC(C)C)c2sccc23)cc1 | -0.256
